We go through 53 compounds from publication PMC4336329 (PLoS ONE, 2015).

Structures are written as SMILES. About 2,200 (0.71%) of roughly 310,000 compounds showed an effect of 50% or more. Effects have a minus sign here. The list shows a part of the results.

The target of the experiment is human ether-à-go-go-related gene (hERG) potassium channel (human, UniProt Q12809). Description: primary screen, population patch clamp on CHO cells stably expressing hERG.
Sequence of human ether-à-go-go-related gene (hERG) potassium channel (Q12809 whole entry, looked up): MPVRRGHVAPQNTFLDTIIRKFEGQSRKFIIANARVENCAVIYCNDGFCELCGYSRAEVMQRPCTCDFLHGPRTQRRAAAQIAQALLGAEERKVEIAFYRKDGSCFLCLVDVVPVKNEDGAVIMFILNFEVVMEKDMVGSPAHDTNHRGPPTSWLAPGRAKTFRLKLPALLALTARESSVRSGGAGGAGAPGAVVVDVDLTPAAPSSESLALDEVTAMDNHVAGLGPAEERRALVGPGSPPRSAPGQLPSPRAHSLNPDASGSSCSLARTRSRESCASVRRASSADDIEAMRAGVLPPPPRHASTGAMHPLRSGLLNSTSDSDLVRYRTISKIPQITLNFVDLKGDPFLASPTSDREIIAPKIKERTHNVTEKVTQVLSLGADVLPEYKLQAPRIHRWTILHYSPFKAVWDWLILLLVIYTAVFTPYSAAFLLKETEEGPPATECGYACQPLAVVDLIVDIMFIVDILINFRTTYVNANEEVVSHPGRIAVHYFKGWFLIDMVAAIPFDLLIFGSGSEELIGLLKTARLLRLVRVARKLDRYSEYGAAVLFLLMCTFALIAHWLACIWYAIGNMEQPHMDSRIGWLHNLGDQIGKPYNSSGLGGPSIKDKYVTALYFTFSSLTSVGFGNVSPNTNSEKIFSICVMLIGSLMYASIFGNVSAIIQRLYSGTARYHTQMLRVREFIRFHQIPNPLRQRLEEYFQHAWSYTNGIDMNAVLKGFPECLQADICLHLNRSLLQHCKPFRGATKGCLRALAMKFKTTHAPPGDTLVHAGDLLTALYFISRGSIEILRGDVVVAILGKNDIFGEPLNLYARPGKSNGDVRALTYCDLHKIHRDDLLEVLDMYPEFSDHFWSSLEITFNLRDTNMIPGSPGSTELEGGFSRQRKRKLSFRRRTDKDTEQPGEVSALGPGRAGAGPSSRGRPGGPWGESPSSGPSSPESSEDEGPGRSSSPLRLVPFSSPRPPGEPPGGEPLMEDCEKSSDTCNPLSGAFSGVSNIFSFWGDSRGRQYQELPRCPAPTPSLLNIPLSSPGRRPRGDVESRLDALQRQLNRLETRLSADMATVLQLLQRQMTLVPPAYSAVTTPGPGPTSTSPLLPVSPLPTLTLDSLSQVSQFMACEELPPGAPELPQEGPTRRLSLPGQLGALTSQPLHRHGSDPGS
As for `O=C(CN1CCN(Cc2ccccc2)CC1)N1N=CCC1c1ccccc1` (centres unmarked), the “hERG current change (%, negative = inhibition) at 1uM” value is 10%. With `CCC(C)NC(=O)C(Cc1ccccc1)NS(=O)(=O)c1ccc2c(c1)oc(=O)n2C` (centres unmarked), the “hERG current change (%, negative = inhibition) at 1uM” value is 12.2%. Turning to `CC(CC(=O)N1CCc2ccccc21)S(=O)(=O)c1ccc2c(c1)NC(=O)CO2` (centres unmarked), the “hERG current change (%, negative = inhibition) at 1uM” value is given as -1.19%. Next, `O=C(O)C1CCN(c2ccc(S(=O)(=O)N3CCOCC3)cc2[N+](=O)[O-])CC1`: 7.61%; `O=C(O)c1cc(-c2cccs2)nn1-c1ccccc1`: 11.3%. In the case of `COc1ccc(-c2c[n+](CC(=O)c3ccccc3)c3n2CCCCC3)cc1.[Br-]`, the “hERG current change (%, negative = inhibition) at 1uM” value was 13.7%.

In the case of `COC(=O)c1cc(NC(=O)C2COc3ccccc3O2)ccc1Cl` (centres unmarked), the “hERG current change (%, negative = inhibition) at 1uM” value was 0.928%. Next, `Cc1c(Cl)cccc1NC(=O)Cn1nnc(C(=O)NCc2cccs2)c1N`: 11.4%; `Cc1cc2c(c(=O)n1Cc1ccc3c(c1)OCO3)C(c1cccnc1)C(C#N)=C(N)O2` (centres unmarked): 13.4%; `Cc1ccc(CSc2ncnc3c2cnn3Cc2ccccc2)cc1C`: -0.97%. As for `CC(=O)Nc1ccc(S(=O)(=O)c2c(N)n(CCN3CCOCC3)c3nc4ccccc4nc23)cc1`, the “hERG current change (%, negative = inhibition) at 1uM” value was determined as 3.97%. As for `COc1ccc(Cc2nnc(NC(=O)Cn3cnc4c3c(=O)n(C)c(=O)n4C)s2)cc1OC`, the figure is 19.7%. As for `Cn1c(Cn2c(=O)sc3ccccc32)nnc1SCc1ccccn1`, the figure is -0.264%; as for `CC(C)Cn1c(-c2nn(C)cc2Cl)n[nH]c1=S`, 15.2%. Next, `Cc1ccc(NCc2nnc(SCC(=O)N3CCc4ccccc43)n2C)cc1`: 9.22%. Turning to `CN(CC(=O)Nc1ccccc1Br)C(=O)COc1ccc2ccccc2c1`, the “hERG current change (%, negative = inhibition) at 1uM” value turned out to be 6.32%.

For the compound `CC(=O)CSc1nc(-c2ccccc2)c(-c2ccccc2)o1`, the “hERG current change (%, negative = inhibition) at 1uM” value turned out to be 10.1%. As for `Cl.O=C(Nc1cc(S(=O)(=O)N2CCCCC2)ccc1O)c1ccccc1NS(=O)(=O)c1ccc(F)cc1`, the figure is 15.2%; as for `CCOC(=O)N1CCN(C(=O)CS(=O)(=O)c2cn(Cc3ccc(F)cc3)c3ccccc23)CC1`, -5.43%. As for `COc1ccc2cc(C(=O)Nc3c(C)n(C)n(-c4ccccc4)c3=O)sc(=O)c2c1OC`, the figure is 17.1%; as for `C=C[C@H]1CN2CC[C@H]1C[C@H]2[C@H](O)c1ccnc2ccccc12`, 2.5%. On to `COCC(=O)Nc1cc(C(=O)Nc2cccc(C)c2C)ccc1Cl`, for which the “hERG current change (%, negative = inhibition) at 1uM” value worked out at 10.4%. As for `CCOC(=O)C1(Cc2ccccc2)CCN(Cc2cccc(OC)c2O)CC1`, the figure is -31%.

For `CCOc1ccc(CCNC(=O)CSCc2ccc(C)cc2)cc1OCC`, the “hERG current change (%, negative = inhibition) at 1uM” value is listed as -2.98%. Next, `Cc1ccc(C(=O)NCc2ccc3c(c2)OCO3)cc1S(=O)(=O)N1CCCCC1`: 4.53%; `O=[N+]([O-])c1cc2c(cc1[N+](=O)[O-])OCCOCCOCCOCCO2`: -7.06%; `CCNc1nc(NCC)nc(Oc2ccc(OCc3ccccc3)nn2)n1`: 7.54%. For `COc1ccc(C(=O)NCCCCNC(=O)c2ccc(OC)c(OC)c2)cc1OC`, the “hERG current change (%, negative = inhibition) at 1uM” value stood at 12.5%.

For the compound `O=c1cc(-c2ccccc2)oc2ccccc12`, the “hERG current change (%, negative = inhibition) at 1uM” value is 13%.

For `CC(C)c1ccc(NC2CCCN(C(=O)CSc3nncn3C)C2)cc1` (centres unmarked), the “hERG current change (%, negative = inhibition) at 1uM” value is reported as 11.2%.

Turning to `CC(=O)Cc1nsc(NC(=O)c2ccc(COc3ccc(C)cc3)o2)n1`, the “hERG current change (%, negative = inhibition) at 1uM” value came to 9.46%. `O=C(COC(=O)C1CC(=O)N(c2nc(-c3ccccc3)cs2)C1)c1ccccc1` (centres unmarked): the “hERG current change (%, negative = inhibition) at 1uM” value turned out to be 11.6%. For `CC(=O)Nc1ccc(-c2nnn(CC(=O)Nc3ccc4c(c3)OCO4)n2)cc1Cl`, the “hERG current change (%, negative = inhibition) at 1uM” value was 12.7%. As for `COc1ccc(N(Cc2cc3cccc(C)c3[nH]c2=O)C(=O)C2CCCO2)cc1` (centres unmarked), the “hERG current change (%, negative = inhibition) at 1uM” value was found to be 6.76%. Take `COc1ccc(CCNC(=O)C2CCN(C(=O)c3ccc(F)cc3)CC2)cc1`: the “hERG current change (%, negative = inhibition) at 1uM” value is listed as 17%.

`Cc1cc(NC(=O)c2ccc(Br)o2)ccc1NC(=O)c1ccco1`: the “hERG current change (%, negative = inhibition) at 1uM” value is reported as -10.9%. Next, `C=CCNC(=O)COC(=O)c1ccc(C)c(NC(=O)c2ccco2)c1`: 11.7%. With `Cc1nc(=S)c2c([nH]1)-c1ccccc1CC21CCCCC1`, the “hERG current change (%, negative = inhibition) at 1uM” value is listed as 13.2%.

In the case of `O=C(CN1C(=O)NC2(CCc3ccccc32)C1=O)NCC(=O)Nc1ccc(F)cc1` (centres unmarked), the “hERG current change (%, negative = inhibition) at 1uM” value amounted to 5.83%. Next, `Cc1cc2n(n1)C(c1cn(-c3ccccc3)nc1C)Nc1ccccc1-2` (centres unmarked): 9.28%; `COc1ccc(C)cc1NC(=O)c1c([N+](=O)[O-])cnn1C`: 13.6%.

As for `COc1ccccc1-n1cnnc1SCC(=O)N1CCN(S(=O)(=O)c2ccccc2)CC1`, the “hERG current change (%, negative = inhibition) at 1uM” value turned out to be 16%. Next, `COC1=C/C(=C/c2c(N)n3nc(CC(=O)N4CCCC4)sc3nc2=O)C=CC1=O`: 15.4%. Next, `O=C(CCN1C(=O)C2(OCCO2)c2ccccc21)c1ccccc1`: 9.82%. As for `O=C(c1cc(-c2ccc(F)cc2)on1)N1CCCc2ccccc21`, the figure is 0.302%; as for `COc1ccc(-c2noc(COC(=O)c3ccco3)n2)cc1OC`, 18.5%. Regarding `COc1cccc(C2C(C(=O)c3ccc(C)o3)=C(O)C(=O)N2c2cc(C)on2)c1` (centres unmarked), the “hERG current change (%, negative = inhibition) at 1uM” value was determined as 5.9%.

Regarding `CN=C(c1ccc(C)cc1)n1c(=S)nc(-c2ccc(C)cc2)n(C)c1=S`, the “hERG current change (%, negative = inhibition) at 1uM” value stood at 18.4%. Next, `Cc1cc(C(=O)NC2CCCc3c2cnn3-c2cccc(C)c2C)no1` (centres unmarked): 1.08%; `CCCn1nc(C(=O)N2CCc3ccccc32)c2ccccc2c1=O`: 12.8%. Next, `CCC(C)C(NC(=O)c1ccc(Cl)cc1)C(=O)Nc1cccnc1` (centres unmarked): 9.75%. For the compound `CC(C)(C)c1ccc(C(=O)Nc2ccc(C(=O)NCc3cccnc3)cc2)cc1`, the “hERG current change (%, negative = inhibition) at 1uM” value was 5.13%. Consider `COc1ccccc1N1CCN(C(=O)CCC(=O)N2CCN(c3ccc(F)cc3)CC2)CC1`, for which the “hERG current change (%, negative = inhibition) at 1uM” value was 13.6%.
